# Source: publication PMC6919601, “Identification of Plasmodium dipeptidyl aminopeptidase allosteric inhibitors by high throughput screening” (PLoS ONE, 2019)
# Screen size: about 110,000 compounds; about 230 (0.21%) showed an effect of 50% or more. Some of the results follow.
# Target: DPAP1 (Plasmodium falciparum, UniProt Q8IIJ9)
# Assay: primary screen, percent inhibition; read by cleavage of a fluorogenic dipeptide substrate; higher = more effect of the substance
# Design: species or system P. falciparum D10 trophozoite lysates; single well
# 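Further: 30 min substrate incubation versus DMSO and 10 µM JCP410 controls.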
# DPAP1, sequence (Q8IIJ9 whole entry, looked up): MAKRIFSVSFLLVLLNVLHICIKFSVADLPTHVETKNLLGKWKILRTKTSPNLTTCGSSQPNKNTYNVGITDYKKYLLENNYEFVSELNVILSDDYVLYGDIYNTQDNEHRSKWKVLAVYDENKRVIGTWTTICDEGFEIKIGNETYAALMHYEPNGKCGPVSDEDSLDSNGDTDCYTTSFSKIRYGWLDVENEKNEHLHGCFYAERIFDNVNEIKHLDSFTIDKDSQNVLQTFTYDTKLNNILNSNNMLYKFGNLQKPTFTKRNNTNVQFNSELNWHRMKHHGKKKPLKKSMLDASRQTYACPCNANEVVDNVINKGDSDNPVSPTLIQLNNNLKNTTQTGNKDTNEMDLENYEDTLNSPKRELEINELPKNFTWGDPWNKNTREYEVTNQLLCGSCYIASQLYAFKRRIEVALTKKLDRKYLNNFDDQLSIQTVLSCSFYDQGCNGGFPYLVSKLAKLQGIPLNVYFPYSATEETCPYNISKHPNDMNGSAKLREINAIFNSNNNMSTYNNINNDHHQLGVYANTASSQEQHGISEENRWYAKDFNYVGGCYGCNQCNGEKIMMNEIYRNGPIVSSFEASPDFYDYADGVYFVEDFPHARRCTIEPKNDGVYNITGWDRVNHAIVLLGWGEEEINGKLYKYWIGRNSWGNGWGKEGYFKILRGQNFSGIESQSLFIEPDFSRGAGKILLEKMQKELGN
row,SMILES,% Inhibition @ 10 uM [%]
1,CCCCN(CCCC)S(=O)(=O)c1cccc2c1C(=O)c1ccccc1C2=O,1.37
2,CCN(CC)CCC(C)OC(=O)c1ccc(O)cc1O (stereo not shown),0.962
3,C=CCSc1nc(C)c2cc(OCC)ccc2n1,-8.72
4,O=C(Nc1cccc2c1[nH]c1ccccc12)C(F)(F)F,10.7
5,CCOc1ccc(NC(=O)/C=C/c2cccc([N+](=O)[O-])c2)cc1,20.2
6,CCCC1=C(C(=O)OCC)C(c2ccc3c(c2)OCO3)NC(=O)N1 (stereo not shown),5.16
7,CC(=O)c1cc(-c2ccccc2)n(CCC(=O)NCc2ccccn2)c1C,-7.35
8,CC1(C)CC(=O)C(C(C2=C(O)CC(C)(C)CC2=O)c2cccc(O)c2)C(=O)C1 (stereo not shown),-3.77
9,CCNC1CCCc2c1[nH]c1ccc(C)cc21 (stereo not shown),-1.38
10,Cc1c(C#N)c2cc([N+](=O)[O-])ccc2n1Cc1ccccc1,-5.78
11,COc1ccc(CCNC2CC(=O)N(c3ccc(C)cc3)C2=O)cc1OC (stereo not shown),-2.82
12,CC1=C(C(=O)Nc2ccccc2)C(c2ccco2)C(C#N)=C(SCC(=O)Nc2cccc(C)c2C)N1 (stereo not shown),-9.39
13,COc1cc(C)c(Cl)cc1S(=O)(=O)NCc1ccco1,0.245
14,C=CCc1c(C)nc2ccccc2c1O,4.32
15,O=S(=O)(Nc1nccs1)c1ccc(-n2cccc2)cc1,-2.45
16,COc1ccc2c(C)c(Cc3ccccc3)c(=O)oc2c1C,8.98
17,COc1ccc(C2C(C#N)=C(N)Oc3[nH]nc(-c4ccc(Cl)cc4)c32)cc1OC (stereo not shown),4.75
18,COc1cccc(CN(C(=O)c2ccc(OC)c(Cl)c2)C2CCS(=O)(=O)C2)c1 (stereo not shown),-3.12
19,O=C(Nc1ccccn1)c1sc2cc(F)ccc2c1Cl,-3.27
20,O=C(Nc1ccccn1)c1ccc(-c2ccc(C(=O)Nc3ccccn3)cc2)cc1,1.28
21,COc1ccccc1NC1=C(Cl)C(=O)N(c2ccccc2)C1=O,5.66
22,O=S(=O)(NC1c2ccccc2Oc2ccccc21)c1ccccc1,-1.6

row,SMILES,% Inhibition @ 10 uM [%]
1,Cc1cc(C)cc(NC(=O)C(C)N2C(=O)c3ccccc3C2=O)c1 (stereo not shown),-1.88
2,O=Cc1cccn1CC(=O)O,-3.78
3,CC1=C(C(=O)Nc2ccc(Cl)cc2)C(c2ccncc2)n2ncnc2N1 (stereo not shown),-4.02
4,O=C1C(Br)=CC(=NS(=O)(=O)c2ccccc2)C=C1Br,14.4
5,CCN(CC)c1nc(-c2ccccc2F)nc2ccccc12,4.8
6,CCOC(=O)N1CCN(C(=O)c2ccc(CS(=O)(=O)c3c(Cl)cccc3Cl)o2)CC1,-3.32
7,COc1cccc(C2NC(S)=NC(C)=C2c2nc(-c3ccccc3)no2)c1 (stereo not shown),4.85
8,c1ccc(CCN2CCC(N3CCN(c4ccccc4)CC3)CC2)cc1,1.57
9,COCCNC(=S)NCc1ccc2c(c1)cc(C)n2C,-1.89
10,CCCOc1ccc2ncc(C(=O)O)c(O)c2c1,4.85
11,O=C(CN1CCCCC1)Nc1c2c(nc3ccccc13)CCC2,-3.16
12,C=CCn1c(=N)n(CC(O)C(C)(C)C)c2ccccc21 (stereo not shown),-1.88
13,CCc1nc2ccccc2n1CCCOc1ccc(Cl)cc1,-2.28
14,CCNC(=O)C1CCN(c2nnc(C)c3c(C)n(-c4ccccc4)nc23)CC1,-7.13
15,O=c1sc2ccccc2n1Cc1ccccc1Cl,-8.2
16,Cc1ccc(C(=O)c2c(N)sc3c2CCCC3)cc1,4.16
17,CC(C)C[C@H](NC(=O)N1CCC(C)CC1)C(=O)NCC#N,-1.82
18,CC(C)Cc1ccc(S(=O)(=O)N2CC(C)CC(C)C2)cc1 (stereo not shown),-1.2
19,Cn1c2ccccc2c2cnn(CC(=O)N3CCc4ccccc4C3)c(=O)c21,-3.67
20,COc1cc(C2Nc3ccccc3C(=O)N2Cc2ccccc2)ccc1O (stereo not shown),2.79
21,C=CCNC(=O)C1CCN(S(=O)(=O)c2ccc(Cl)cc2)CC1,3.58
22,O=C(CSc1nc(O)c2cnn(-c3ccccc3)c2n1)N1CCCC1,-5.22

row,SMILES,% Inhibition @ 10 uM [%]
1,COc1ccc2oc(C(=O)c3ccc(F)cc3)c(NC(C)=O)c2c1,3.34
2,CC(C)(C)c1ccc(C2=N/C(=C\c3cccs3)C(=O)O2)cc1,-1.51
3,Cc1c(C)n(C(=O)CSc2nccn2C)c2ccccc12,-7.45
4,Cc1ccc(C2C3=C(O)c4ccccc4C3=Nc3c2c(=O)[nH]c(=O)n3Cc2ccccc2)cc1 (stereo not shown),-2.75
5,OC1=C2C(=Nc3ccccc3SC2c2ccccc2)c2ccccc21 (stereo not shown),-2.28
6,Cc1nn(CC(=O)NCCCN(C)C2CCCCC2)c(=O)c2nn(-c3ccccc3)c(C)c12,-2.52
7,CCOC(=O)C1=C(C)N=c2s/c(=C\c3cccc(Br)c3)c(=O)n2C1c1ccccc1 (stereo not shown),1.84
8,CCOc1ccc(NC(=O)CN2C(=O)S/C(=C/c3cc(C)n(-c4ccccn4)c3C)C2=O)cc1,-10.9
9,O=C(Nc1cccnc1Cl)c1cc2nc(C(F)F)cc(C(F)F)n2n1,-0.318
10,COc1ccc(CCNC(=O)c2cccnc2C(=O)O)cc1OC,2.22
11,COc1cccc(-c2[nH]nc3c2C(c2ccc(OC)c(Br)c2)C(C#N)=C(N)O3)c1 (stereo not shown),1.57
12,CC1CC2(C)Oc3ccccc3C3OCC1(CO)C(C)C32 (stereo not shown),1.57
13,CC(C)C(NS(=O)(=O)c1cccc2nsnc12)C(=O)NCCc1ccc(Cl)cc1 (stereo not shown),-4.1
14,CCOc1ccc(C2C3=C(O)CCCC3=NC(C)=C2C(=O)Nc2ccccc2OC)cc1 (stereo not shown),-2.64
15,CC(C)c1ccc(-c2c(N3CCCCCC3)c(=O)c2=O)cc1,2.24
16,CC(NC(=O)c1ccc(CNS(=O)(=O)c2ccc(Br)cc2)cc1)c1ccccc1 (stereo not shown),-3.58
17,CCc1ccc(-c2nc(SCC(=O)NCCCOC)c(-c3ccc(F)cc3)[nH]2)cc1,3.28
18,COc1ccc(C2=N/C(=C\C=C\c3ccccc3)C(=O)O2)c(Cl)c1,0.775
19,COc1ccc(-c2nc3c(=O)n(C)c(=O)n(C)c3[nH]2)c(OC)c1,-3.33
20,Cc1ccc(Cn2c(C(=O)O)c(CNCc3ccc4c(c3)OCO4)c3ccc(C)cc32)cc1,8.82
